{"source": "PubChem BioAssay AID588591", "about": "(National Center for Advancing Translational Sciences (NCATS), 2011)", "note": "Among all 390,000 compounds or so, about 4,700 (1.2%) were called active. Inconclusive results, whose numbers are uncertain, are shown with a selection of clear calls. The call rests on the fitted dose curve; in most records, active means well fitted inhibition curve with a large enough effect; inconclusive means small, poorly fitted or top-dose-only effect, or another doubt; inactive means no such curve, though single readings can be large or run the other way. Where the call is inconclusive, the potency comes from a doubtful curve fit. Potency means the concentration at half of the fitted maximal effect; tags describe the fitted curve by direction and shape.", "data": [{"target": "DNA polymerase eta (Homo sapiens) (UniProt Q9Y253)", "sequence (Q9Y253 whole entry, looked up)": "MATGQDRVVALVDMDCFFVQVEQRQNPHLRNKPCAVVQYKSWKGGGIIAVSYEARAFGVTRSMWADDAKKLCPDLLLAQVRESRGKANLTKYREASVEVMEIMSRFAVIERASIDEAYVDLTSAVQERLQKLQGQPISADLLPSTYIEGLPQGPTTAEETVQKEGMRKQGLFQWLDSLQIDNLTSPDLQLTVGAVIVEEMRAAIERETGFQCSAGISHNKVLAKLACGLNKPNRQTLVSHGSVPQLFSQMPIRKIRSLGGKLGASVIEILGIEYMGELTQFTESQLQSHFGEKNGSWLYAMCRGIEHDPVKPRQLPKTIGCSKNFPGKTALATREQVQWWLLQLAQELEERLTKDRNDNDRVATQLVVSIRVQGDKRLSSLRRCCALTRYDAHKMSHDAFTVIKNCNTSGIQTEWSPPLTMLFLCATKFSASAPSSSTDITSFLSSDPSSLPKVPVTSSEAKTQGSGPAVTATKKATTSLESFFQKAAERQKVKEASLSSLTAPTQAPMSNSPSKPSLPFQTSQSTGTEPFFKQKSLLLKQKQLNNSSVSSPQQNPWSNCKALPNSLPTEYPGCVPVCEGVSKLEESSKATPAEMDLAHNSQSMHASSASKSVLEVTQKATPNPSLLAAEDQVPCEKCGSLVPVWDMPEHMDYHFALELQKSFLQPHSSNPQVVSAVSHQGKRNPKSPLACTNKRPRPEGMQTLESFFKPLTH", "test": "qHTS for Inhibitors of Polymerase Eta", "details": "recombinant Pol eta, fluorescent DNA replication assay; series mostly up to 114 µM", "how_it_was_run": "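Pol eta at 10 nM preincubated with compounds 15 min at room temperature; reaction started with fluorescent substrate (50 nM final) and read kinetically at 0 and 10 min.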", "values": [{"compound": "NC(=S)N=Nc1c(O)cc(O)c2[nH]c(=O)ccc12", "Potency": "active: 1.78 µM"}, {"compound": "O=[N+]([O-])c1cc(S(=O)(=O)N2CCCC2)ccc1N/N=C/c1ccncc1", "Potency": "inconclusive: 3.16 µM [inhibitor, full curve, poor fit]"}, {"compound": "O=C(NC1CCCC1)C(c1cccnc1)N(C(=O)c1csnn1)c1ccccc1Cl", "note": "(centres undefined)", "Potency": "inconclusive: 89.1 µM [inhibitor, partial curve, poor fit]"}, {"compound": "COCCn1c(=NC(=O)c2cc3ccccc3oc2=O)sc2cc(S(N)(=O)=O)ccc21", "Potency": "inconclusive: 22.4 µM [inhibitor, partial curve, poor fit]"}, {"compound": "CSc1ccccc1-c1nnc(-c2ccc(C)cc2)o1", "Potency": "inconclusive: 11.2 µM [inhibitor, partial curve, poor fit]"}, {"compound": "CC1=C(C(=O)O)N2C(=O)C(NC(=O)c3nn(C)c(C)c3Cl)C2SC1", "note": "(centres undefined)", "Potency": "active: 31.6 µM"}, {"compound": "CCOC(=O)COc1c(Br)cc(C2NC(=O)NC(C)=C2C(C)=O)cc1OC", "note": "(centres undefined)", "Potency": "active: 22.4 µM"}, {"compound": "CCSc1ncnc2c(C#N)c3n(c12)CCCCC3", "Potency": "inactive"}, {"compound": "Cc1cccn2c(=O)c3cc(C(=O)NCCc4ccc(S(N)(=O)=O)cc4)n(C)c3nc12", "Potency": "active: 79.4 µM"}, {"compound": "CCCC(=O)Oc1c(Sc2ccc(Cl)cc2)c(C)nn1-c1ccccc1", "Potency": "inactive"}, {"compound": "CN1/C(=C\\C=C2/SC(=S)N(CC(=O)O)C2=O)C(C)(C)c2ccccc21", "Potency": "active: 44.7 µM"}, {"compound": "COCCN=c1scc(-c2cccs2)n1/N=C/c1ccc(O)c(O)c1O", "Potency": "inconclusive: 14.1 µM [inhibitor, partial curve, poor fit]"}, {"compound": "Cc1ccc(NC(=O)COC(=O)CCNS(=O)(=O)c2ccc(C)c(C)c2)cc1", "Potency": "inconclusive: 70.8 µM [inhibitor, partial curve, poor fit]"}, {"compound": "O=C1Nc2ccc(F)cc2C12Nc1ccccc1-c1nnc(SCc3ccccc3Cl)nc1O2", "note": "(centres undefined)", "Potency": "inconclusive: 14.1 µM [inhibitor, full curve]"}, {"compound": "O=C(Nc1ccc(O)c2c(=O)cc(-c3ccccc3Cl)oc12)c1ccc(Cl)c(Cl)c1", "Potency": "inactive"}, {"compound": "CN(C)c1ccc(C(c2ccc(N(C)C)cc2)C(O)c2ccccc2)cc1", "note": "(centres undefined)", "Potency": "inconclusive: 50.1 µM [inhibitor, partial curve, poor fit]"}, {"compound": "Cc1c2cnccc2c(C)c2c1oc1ccccc12", "Potency": "inconclusive: 28.2 µM [inhibitor, single point]"}, {"compound": "COc1ccc2cc(-c3cn4c(n3)sc3cc(F)ccc34)c(=O)oc2c1", "Potency": "inconclusive: 100 µM [inhibitor, partial curve, poor fit]"}, {"compound": "CC(C)S(=O)(=O)c1oc(-c2ccc(F)cc2)nc1S(=O)(=O)c1ccc(F)cc1", "Potency": "inactive"}]}]}
